Results as given in PMC6003176.
Results are given in words; binding and its absence hold for the method and conditions named. For some assays here: Binding seen in cells or lysates may run through a third protein. Some results given as binding are weak or reduced against the parent protein; the word gives no strength.

Sequences of proteins named here, by UniProt entry; tags and fusion partners are left off. A change or cut given only in a name is not applied to a line headed by its entry.
UniProt P05556: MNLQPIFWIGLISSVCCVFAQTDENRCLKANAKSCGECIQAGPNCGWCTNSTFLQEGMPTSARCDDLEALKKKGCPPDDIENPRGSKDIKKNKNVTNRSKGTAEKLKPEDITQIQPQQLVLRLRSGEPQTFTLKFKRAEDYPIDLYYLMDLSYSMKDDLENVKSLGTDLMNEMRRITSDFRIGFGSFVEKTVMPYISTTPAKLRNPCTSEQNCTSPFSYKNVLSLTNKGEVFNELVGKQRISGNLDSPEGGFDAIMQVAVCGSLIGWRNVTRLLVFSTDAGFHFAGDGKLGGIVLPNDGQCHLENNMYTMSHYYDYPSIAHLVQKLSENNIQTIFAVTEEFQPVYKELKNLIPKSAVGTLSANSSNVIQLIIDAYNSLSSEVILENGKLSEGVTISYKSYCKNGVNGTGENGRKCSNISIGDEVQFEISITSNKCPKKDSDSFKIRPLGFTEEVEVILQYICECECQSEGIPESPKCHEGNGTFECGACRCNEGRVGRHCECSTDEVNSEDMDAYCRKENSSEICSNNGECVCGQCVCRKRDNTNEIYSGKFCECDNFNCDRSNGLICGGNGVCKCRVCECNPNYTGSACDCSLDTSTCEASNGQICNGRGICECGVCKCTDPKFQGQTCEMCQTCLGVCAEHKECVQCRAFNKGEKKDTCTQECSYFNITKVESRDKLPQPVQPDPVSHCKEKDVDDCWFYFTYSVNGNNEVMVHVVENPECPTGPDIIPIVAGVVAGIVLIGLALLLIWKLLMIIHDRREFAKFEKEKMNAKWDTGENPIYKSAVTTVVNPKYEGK

Key:
[1] = target: β1 integrin, endogenous in HCT116 cells (human (endogenous in HCT116)) (UniProt P05556); assay: co-IP; cell membrane proteins / cell lysates of HCT116 cells immunoprecipitated with anti-SNCG or anti-β1 integrin antibody; Western blot; normal IgG as negative control
[2] = target: gamma-synuclein (SNCG), endogenous in HCT116 cells (human (endogenous in HCT116)) (UniProt O76070); assay: as above
[3] = target: β1 integrin, endogenous in HCT116 cells (human (endogenous in HCT116)) (UniProt P05556); assay: far-Western, overlay or dot blot; HCT116 cell lysates separated by native PAGE (methods; the legend says SDS-PAGE), transferred to nitrocellulose, probed with 10 ng of purified SNCG overnight at room temperature, detected with HRP-labeled anti-SNCG mAb; cells with control siRNA or β1 siRNA, treated without or with 1 μmol/L rhSNCG; only the binder purified

Substance	binding [2]	further results
gamma-synuclein (SNCG), endogenous in HCT116 cells (from UniProt O76070 1-127)		binding [1]: binds
β1 integrin, endogenous in HCT116 cells (from UniProt P05556 21-798) (receptor)	binds	
HER-2, endogenous in HCT116 cells (from UniProt P04626 23-1255) (receptor)	no binding	
recombinant untagged SNCG, purified (from UniProt O76070 1-127)		binding [3]: binds
EGFR, endogenous in HCT116 cells (from UniProt P00533 25-1210) (receptor)	no binding	
